Test results reported in PubChem BioAssay.
Inconclusive means that the source gave no clear call. Such entries were picked first, then a sample of the others. Activity calls are given as the source filed them.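 Rule for the calls: active = viability at or below 27.92% in each of two runs, the all-compound median minus 4 SD; inconclusive = no clear call, values can overlap the other calls; inactive = the rest.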

assay: viability of PTEN-null HCT116 cells – cell-based, HCT116 clonal line, CellTiter-Glo, pilot screen (AID 824); conditions: HCT116 PTEN-deleted viability, 60 h, at 10 µM, stronger effect = lower value;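 note: 0% = 20 µM Hyamine control and 100% = vehicle cell control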

| Compound | viability |
| --- | --- |
| COc1ccc(C2c3c(oc4ccccc4c3=O)C(=O)N2c2ccccn2)cc1OC (centres undefined) | inconclusive: 28.3% |
| CCCn1cc(S(=O)(=O)CC(=O)Nc2ccc(OCC)cc2)c2ccccc21 | inconclusive: 72.7% |
| O=C(CN(CC(=O)N1CCOCC1)S(=O)(=O)c1ccc(Br)s1)N1CCOCC1 | inconclusive: 98.6% |
| Cc1ccc(-c2nc(=S)c3c(n2Cc2ccco2)CC(C)(C)OC3)cc1 | inconclusive: 66.5% |
| COCC(C)N=Cc1c(O)[nH]c2ccccc12 (centres undefined) | inactive: 97.5% |
| CCC1SC2=NC(C)=C(C(=O)OC)C(c3ccc(C(=O)OC)cc3)N2C1=O (centres undefined) | inconclusive: 92.9% |
| CC(C)CC(NC(=O)C1CCC(C)CC1)C(=O)Nc1ccccn1 (centres undefined) | inconclusive: 90.2% |
| CC(=O)c1c(C)oc(C)c1CSCc1ccc(C(=O)O)o1 | inactive: 97.9% |
| N#Cc1nc(-c2ccc(Cl)cc2)oc1NCCc1ccccn1 | inconclusive: 94.8% |
| COc1ccc(N(C)S(=O)(=O)c2cccc(C(=O)NC3=NCCS3)c2)cc1 | inactive: 89.8% |
| C=C(C)Cn1c(CCNC(=O)CCC)nc2ccccc21 | inconclusive: 92.4% |
| COCCNC(=O)c1cn(C)c(=O)c2cc(OC)c(OC)cc12 | inconclusive: 98.7% |
| CSc1nc(N(CCO)CCO)c2sc3nc(-c4ccco4)c4c(c3c2n1)CCC4 | inconclusive: 105% |
| Cc1ccc(S(=O)(=O)C(C#N)c2nc3ccccc3nc2N2CCCCC2)cc1 (centres undefined) | inconclusive: 99% |
| Cc1c(C(=O)NCCC2=CCCCC2)oc2ccc(S(=O)(=O)N3CCOCC3)cc12 | inconclusive: 37.3% |
| CN(C)/C=N/c1c(C#N)cnn1-c1nc2ccccc2s1 | inconclusive: 99.3% |
| CCN(CC)C(=O)c1cn(CC)c(=O)c2cc(OC)c(OC)cc12 | inconclusive: 103% |
| Cc1ccc(CNC(=O)CCS(=O)(=O)c2cccc3nonc23)cc1 | inconclusive: 96% |
| CN1CCc2c(sc3nc(SCC(N)=O)n(-c4ccccc4)c(=O)c23)C1 | inconclusive: 93% |
| CN1c2ccccc2-c2nc3ccccc3n2C1c1ccccn1 (centres undefined) | inconclusive: 69.3% |

| Compound | viability |
| --- | --- |
| COCCCNC(=O)c1cc2c(=O)n(C)c3ccccc3c2n1C | inconclusive: 28.3% |
| O=C(O)CN1C(=O)Nc2ccc(Br)cc2C1c1ccccc1 (centres undefined) | inconclusive: 89.4% |
| Cc1nc(NCc2ccc3c(c2)OCO3)c2oc3ccccc3c2n1 | inconclusive: 85.1% |
| CCN1CCN(c2nc(SC)nc3sc4c(c23)CC(C)(C)OC4)CC1 | inconclusive: 71.7% |
| CCC(=O)c1cc(F)c(N2CCN(S(=O)(=O)c3ccccc3)CC2)cc1C | inconclusive: 74.4% |
| CCOC(=O)Cn1nc(-c2ccc(Cl)cc2)cc1N | inconclusive: 102% |
| Cn1ccnc1SCC(=O)NC1CCCCC1 | inconclusive: 97.8% |
| CC1(C)Cc2c(sc3c2c(=N)n(Cc2ccco2)c(=O)n3Cc2ccc(F)cc2)CO1 | inconclusive: 38.9% |
| N#CC1=C(N)Oc2c(sc3ccccc23)C1c1ccco1 (centres undefined) | inactive: 65.2% |
| CCCSc1nc2c(cnn2-c2ccc(C)cc2)c(=O)[nH]1 | inconclusive: 42.9% |
| Cc1cc2cc(CN(Cc3ccc4c(c3)OCO4)C(=O)c3cnccn3)c3nnnn3c2cc1C | inconclusive: 84.4% |
| Cc1ccc(Cn2c(CN3CCOCC3)nc3c2c(=O)n(C)c(=O)n3C)cc1 | inconclusive: 88.3% |
| CC1CCc2sc3nc(N4CCN(CCO)CC4)n4ncnc4c3c2C1 (centres undefined) | inconclusive: 90.7% |
| COCc1cc(C)nc2sc3c(=O)n(Cc4ccco4)nnc3c12 | inactive: 90.7% |
| Cc1ccc(-n2nc(C)c3c(C)c(CCC(=O)NCc4ccco4)c(C)nc32)cc1 | inactive: 75.5% |
| CCOc1ccc(-n2c(SCC(N)=O)nc3c(c2=O)SCC3)cc1 | inconclusive: 95.9% |
| Cn1nnc2c(NCc3ccco3)nccc21 | inconclusive: 90.1% |
| Cc1nn2c(=O)cc(CSc3nc4ccccc4[nH]3)nc2s1 | inactive: 103% |
| CC(C)c1ccc(-c2nc(N3CCCC3)nc3n[nH]c(N)c23)cc1 | inconclusive: 59.5% |
